Test results published in ChEMBL document CHEMBL4888484, “Replenishing the malaria drug discovery pipeline: Screening and hit evaluation of the MMV Hit Generation Library 1 (HGL1) against asexual blood stage Plasmodium falciparum ,using a nano luciferase reporter read-out” (2022).
Screen size: about 150,000 compounds; about 540 (0.36%) showed an effect of 50% or more. Some of the results follow.

Each compound was assayed on Plasmodium falciparum (assay: Primary screen in NF54 nanoGlo assay, in single point, at 2uM, 72h; a lower Z score goes with more inhibition). Conditions: timepoint 72 hour.
Assay type: functional, Erythrocyte

SMILES	% Inhibition [%]	Z score
O=S1(=O)CCN(C2CCN(Cc3c(F)cccc3F)CC2)CC1	33	-4.46
c1ccc2c(-c3ncnc4ccccc34)ncnc2c1	0	-0.03
CC(C)(CC(=O)NCc1ccc[nH]1)CC(=O)c1ccccc1	-10	1.98
Cc1noc(C)c1C(C)(C)C(=O)N1CC2(CCC2)C[C@@H]1C	1	-0.09
CCc1nc(NS(=O)(=O)c2cc(C)c(C)s2)no1	2	-0.26
Cc1ccc(NC(=O)CN2CCCc3nc(C4CC4)ncc3C2=O)cc1	-1	0.19
Cc1[nH]ccc1C(=O)N[C@@H](C)C(C)(F)F	11	-1.66
CC(=O)N[C@H]1C[C@@H](c2cc(NCCCc3cccnc3)nc(C)n2)C1	-15	2.91
COc1ccccc1CNC(=O)CN1C[C@H](C)[C@@](O)(C2CCC2)C1	4	-0.7
CCc1ccc(-c2n[nH]c(=O)c3c2CCCC3)cc1S(=O)(=O)N1CCN(CC)CC1	11	-1.27
CCn1c(=O)[nH]c2cc(-c3noc(-c4cc(OC)cc(OC)c4)n3)ccc21	-10	0.99
CCS(=O)(=O)NCCS(=O)(=O)N1CCO[C@H](C(C)(C)C)C1	-5	0.42
Cc1ccccc1NC(=O)Cn1c(=O)c(N2CCCC2)nc2ccccc21	5	-0.64
CN1CCN(c2ccnc(-c3noc(CCc4cnn(C)c4)n3)c2)CC1	-6	0.81
Cc1ccc(NC(=O)N(Cc2ccccc2)Cc2c(-c3cccs3)n(C)c3ccccc23)c(C)c1	-5	0.67
Cc1nc(C(C)C)oc1C(=O)N1CCC[C@H](c2nc3c(s2)CCCC3)C1	-3	0.5
O=C(Nc1ccc(Oc2ccc(Cl)cc2)c(Cl)c1)c1cc2ccccc2cc1NS(=O)(=O)c1ccc(Cl)cc1	-3	0.24
COCCCn1c(=O)c2ccccc2n(CC(=O)N(C)c2ccccc2)c1=O	37	-4.14
Cc1ccc(F)cc1NC(=O)Cn1nc2c(Oc3ccc(C(C)C)cc3)nc3ccccc3n2c1=O	-3	0.37
COc1ccc(OCc2nc(-c3ccc4c(c3)CC(=O)N4C)c(C)s2)cc1	-2	0.36
Nc1ccc(C(=O)N2CCC3(CC2)c2nc[nH]c2CCN3C(=O)C2CCC2)cn1	-9	1.74

SMILES	% Inhibition [%]	Z score
COc1nc2c(cc1CNC(=O)C1CCOCC1)C(=O)N(C1CCCC1)C2	-20	2.59
O=C1C[C@]2(C(=O)N(CC(=O)N3CCCC3)c3ccccc32)c2cnn(-c3ccccc3)c2N1	-6	0.6
CN(CCc1nc(-c2cccnc2)cs1)C(=O)OC(C)(C)C	-9	1.39
Cc1cccc(-n2nnnc2C2(Nc3ccc4c(c3)OCCO4)CCCC2)c1	2	-0.28
CN1CCCC(C)(C)[C@@H]1CNC(=O)c1cnnc(-c2ccccc2)c1	6	-0.99
COCCN1CC2(CCC1=O)CCN(C(=O)c1cnn(C(C)C)c1)CC2	-10	1.36
CCC1(CO)CCN(C(=O)NCc2ccc(N(C)C)cc2C)CC1	-6	0.79
COc1ccc(OC)c(NC(=O)CN(CC(C)C)C(C)C)c1	-9	1.24
CCS(=O)(=O)NCC(=O)N1CCCc2sccc2C1	-10	1.85
O=C(COCC(=O)N1CCCCC1)NCc1ccc2c(c1)OCO2	9	-1.17
C[C@H]1CCCN1C(=O)C1CCCCCC1	-7	0.78
CC(C)(C)n1ncn(Cc2ccn(C3CCCC3)n2)c1=O	-3	0.51
O=C1CC[C@H](NC(=O)c2cccc(C(F)F)c2F)C2(CCC2)N1	-6	0.92
COC(C)C(=O)N1CCCC(NS(=O)(=O)c2ccccc2)C1 (centres undefined)	-9	0.93
Cc1cn2c(CCC(=O)N3C[C@H](C)Oc4ncccc43)csc2n1	-13	1.78
CC1=C[C@@H](CNCc2cccnc2)[C@H](C(C)C)C[C@H]1Cc1nc2cccc(C)c2[nH]1	8	-1.25
CC[C@H]1CN(C(=O)N2CCC(C(=O)NCCCN(C)Cc3ccccc3)CC2)c2cc(C)ccc2O1	3	-0.6
Cc1cccc(C(=O)NC[C@](C)(O)C(F)(F)F)n1	7	-1.26
O=C(c1cccc2[nH]c(C(F)F)nc12)N1CCN2C[C@H](O)C[C@H]2C1	-6	0.8
CCc1cc(C#N)ccc1NC(=O)N(C)Cc1nc(C)c[nH]1	-7	1.44
O=C(N[C@@H](Cc1ccccc1)C(=O)OCc1cnc(-c2ccccc2)o1)c1ccccc1	38	-1.3
